# About 2,200 (0.71%) of roughly 310,000 compounds showed an effect of 50% or more. Effects have a minus sign here. The list shows a part of the results.
# Molecular target: human ether-à-go-go-related gene (hERG) potassium channel (human, UniProt Q12809)
# Assay: primary screen, population patch clamp on CHO cells stably expressing hERG
# Sequence of human ether-à-go-go-related gene (hERG) potassium channel (Q12809 whole entry, looked up): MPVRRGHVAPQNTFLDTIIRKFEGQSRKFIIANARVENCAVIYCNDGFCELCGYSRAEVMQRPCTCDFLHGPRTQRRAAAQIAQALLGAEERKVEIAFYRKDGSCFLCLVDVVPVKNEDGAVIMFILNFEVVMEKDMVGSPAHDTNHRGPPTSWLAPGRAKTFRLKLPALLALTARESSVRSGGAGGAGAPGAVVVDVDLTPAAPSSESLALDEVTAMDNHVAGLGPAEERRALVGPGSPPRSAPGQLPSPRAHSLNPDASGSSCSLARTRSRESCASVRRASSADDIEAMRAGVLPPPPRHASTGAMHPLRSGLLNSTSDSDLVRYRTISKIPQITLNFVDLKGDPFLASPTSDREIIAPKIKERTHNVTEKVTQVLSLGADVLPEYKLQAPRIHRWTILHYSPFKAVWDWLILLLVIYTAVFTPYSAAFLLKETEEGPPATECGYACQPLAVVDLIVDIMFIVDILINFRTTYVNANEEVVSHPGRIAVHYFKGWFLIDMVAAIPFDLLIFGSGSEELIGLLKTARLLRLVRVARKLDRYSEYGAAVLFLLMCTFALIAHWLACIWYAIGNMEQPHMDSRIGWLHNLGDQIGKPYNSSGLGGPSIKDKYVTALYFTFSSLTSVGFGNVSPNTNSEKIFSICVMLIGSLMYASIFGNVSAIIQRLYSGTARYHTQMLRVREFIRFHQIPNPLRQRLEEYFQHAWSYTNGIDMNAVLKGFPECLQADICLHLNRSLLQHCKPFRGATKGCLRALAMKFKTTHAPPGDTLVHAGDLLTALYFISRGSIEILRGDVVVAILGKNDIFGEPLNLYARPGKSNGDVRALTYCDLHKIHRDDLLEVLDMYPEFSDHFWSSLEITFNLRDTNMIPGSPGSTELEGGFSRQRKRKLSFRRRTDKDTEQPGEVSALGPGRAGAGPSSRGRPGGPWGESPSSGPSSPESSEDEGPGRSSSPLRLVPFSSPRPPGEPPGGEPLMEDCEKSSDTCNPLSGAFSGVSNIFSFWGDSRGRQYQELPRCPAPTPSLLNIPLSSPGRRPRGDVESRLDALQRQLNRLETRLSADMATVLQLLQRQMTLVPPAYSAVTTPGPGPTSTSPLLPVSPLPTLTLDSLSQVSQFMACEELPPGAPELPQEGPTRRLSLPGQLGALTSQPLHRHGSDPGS
row,Compound,"hERG current change (%, negative = inhibition) at 1uM [%]"
1,CN(C)C(=O)CCC(=O)N(C)CC1CCCN(CCc2ccc(F)cc2)C1 (stereo not drawn),-0.257
2,COC(=O)c1ccc(C(=O)OC)c(NC(=O)CN(c2ccccc2)S(=O)(=O)N(C)C)c1,2.65
3,COc1ccc(NC(=O)Cc2c(O)c3ccccc3[nH]c2=O)cc1,0.287
4,CCCCn1c(N)c(N(Cc2ccccc2OC)C(=O)C(C)Oc2ccc(F)cc2)c(=O)[nH]c1=O (stereo not drawn),9.78
5,C=CCC(CC=C)(NC(=O)c1ccccc1C(=O)O)c1ccccc1,1.96
6,CCOC(=O)N1CCN(CCC(=O)Nc2ccc(Br)c(C)c2)CC1.Cl,2.3
7,OCC1(Cc2ccccc2)CCN(Cc2ccc(-c3ccco3)cc2)CC1,-8.07
8,CN(C)c1nc(C(=O)O)nc(N2CCOCC2)n1,8.43
9,CC(=O)c1ccc(S(=O)(=O)Nc2cccc(-c3cn4c(n3)SCC4)c2)cc1,7.41
10,NC(=O)N1CCN(C(=O)c2ccco2)CC1,2.15
11,CCOC(=O)C(CC)Sc1ncnc2nc[nH]c12 (stereo not drawn),-0.0147
12,Cc1nnc(SCC(=O)N2CCN(Cc3ccccc3)CC2)s1,0.0845
13,COc1ccc(S(=O)(=O)N(CC(=O)NCc2ccco2)c2ccccc2)cc1OC,8.42
14,CCCOc1ccccc1C(=O)N(Cc1cccc(Br)c1)C1CCS(=O)(=O)C1 (stereo not drawn),1.89
15,CC(C(=O)NCC1CCCO1)N(C(=O)c1snc(C(N)=O)c1N)c1cccc(F)c1 (stereo not drawn),3.08
16,CCOc1ccc(Oc2ccc(Cl)cc2NC(=O)CCNC(C)=O)cc1,6.03
17,Cc1cccc(S(=O)(=O)Nc2nc3ccccc3nc2NCc2ccc3c(c2)OCO3)c1,18.7
18,CN(C)c1cccc2c(S(=O)(=O)Nc3ccccn3)cccc12,7.99
19,O=C(CSc1nnnn1C1CCCCC1)NCCc1ccccc1,5.19
20,CCCCCC(=O)NC(=S)Nc1ccccc1C(=O)OC,9.61
21,CC1CCCN(C(=O)COC(=O)Cc2c[nH]c3ccccc23)C1 (stereo not drawn),10.3
22,CCC1=Nc2cc(C(=O)NCC3CCCO3)ccc2Sc2ccc(Cl)cc21 (stereo not drawn),6.98
23,CCN1CCc2c(sc(NC(=S)NC(=O)c3ccco3)c2C(N)=O)C1,15.8

row,Compound,"hERG current change (%, negative = inhibition) at 1uM [%]"
1,CC(C)CCn1c(SCC(N)=O)nc2c1c(=O)n(C)c(=O)n2C,10.7
2,CCn1cc(C(=O)NCc2cccc(C(F)(F)F)c2)c(=O)c2ccc(C)nc21,9.74
3,CCc1c(C)sc(NC(=O)c2cc(-c3ccco3)on2)c1C#N,13.9
4,O=C1NC(=S)N(c2ccc(Cl)cc2)C(=O)/C1=C/N1CCN(C(=O)c2ccco2)CC1,15.4
5,Cc1cccn2c(=O)nc(SCC(=O)N3CC(C)OC(C)C3)nc12 (stereo not drawn),6.96
6,COc1ccc(N(CC(=O)NCCSc2ccccn2)S(=O)(=O)c2ccccc2)cc1Cl,11.3
7,CCCOc1ccc(CNC(=S)Nc2ccccc2)cc1Cl,16.5
8,COc1ccc(CNC(=O)C2CCN(S(=O)(=O)N3CCCCC3)CC2)c(OC)c1,6.87
9,Cc1ncc(CO)c(CNc2ccc(Oc3ccccc3)cc2)c1O,5.5
10,Cc1ccc(S(=O)(=O)N2C(=O)CCC2C(=O)O/N=C(\N)c2cccc([N+](=O)[O-])c2)cc1 (stereo not drawn),-1.25
11,CCOC(=O)c1ccc(NC(=O)CSc2nnc(COc3ccccc3OC)n2CC)cc1,7.98
12,CS(=O)(=O)N(CC(N)=O)c1cccc(Br)c1,9.98
13,CCS(=O)(=O)Nc1ccc(Cc2ccncc2)cc1,9.28
14,O=C(NNc1ccc(Cl)cc1)c1sccc1Cl,8.76
15,CCOC(=O)NCc1ccc2[nH]c(C)cc2c1,17.9
16,COc1ccccc1NC(=O)N1CCCC1C(=O)NCC1CCCO1 (stereo not drawn),1.56
17,COc1cc(Cl)c(C)cc1NC(=O)COC(=O)c1cc[n+]([O-])cc1,-5
18,O=S(=O)(Nc1cccc(F)c1)c1cccc2nsnc12,4.15
19,CC(=O)NCCn1c(SCc2ccccc2F)nc2ccccc2c1=O,5
20,OC1CCN(c2c3c(nc4cc(-c5ccc(Cl)cc5)nn24)CCC3)CC1,5.81
21,Cn1c(SCCOc2ccccc2Cl)nnc1-c1ccncc1,2.48
22,O=C(COc1ccc(Cl)cc1)NCCCn1ccnc1,-13.5
23,O=C(OCC(=O)c1ccc[nH]1)c1ccc(Br)cc1,11.4

row,Compound,"hERG current change (%, negative = inhibition) at 1uM [%]"
1,CCOc1cc(C(=O)NCC(=O)N2CCC3(CC2)NCCc2[nH]cnc23)cc(OCC)c1OCC,13.1
2,CCN(CC)c1ccc(NC(=O)COC(=O)COc2ccccc2[N+](=O)[O-])cc1,13.1
3,CC(C)COc1ccc(Cc2c(O)[nH]c(=S)[nH]c2=O)cc1,13.9
4,Cc1ccc(SCC(=O)N(C)CC(=O)Nc2cccc(F)c2)c(C)c1,17.8
5,O=C(NCc1cccnc1)c1c(F)c(F)c(F)c(F)c1F,-6.52
6,O=C1CSC(c2ccccc2)N1c1nc(-c2ccc(Cl)cc2Cl)cs1 (stereo not drawn),-1.24
7,COc1ccc(C/C(N)=N/OC(=O)Cc2ccccc2)cc1,7.22
8,O=C(CCNC(=O)c1ccc([N+](=O)[O-])cc1)NC1CCCCCC1,-1.26
9,COC(=O)C1CCN(C(=O)CSc2nnc(-c3ccncc3)o2)CC1,-9.3
10,COc1ccc(N2CCN(C(=O)NCc3ccc(C)cc3)CC2)cc1,7.68
11,CC(=O)/C(=N/Nc1cccc(Cl)c1)N1CCOCC1.Cl,11.9
12,OCC1OC(n2cnc3c(NC4CCCCC4)ncnc32)C(O)C1O (stereo not drawn),8.99
13,COc1cc(C)c(NC(c2ccccc2)c2ccccc2)cc1OC,8.51
14,CN(C)c1ccc(CN(Cc2ccco2)C(=O)c2ccco2)cc1,3.64
15,CCC[C@@H](NS(=O)(=O)c1ccc(C)cc1)C(=O)Oc1ccc2c3c(c(=O)oc2c1)CCC3,7.25
16,NC(=O)c1ccc(F)cc1,14.1
17,NC(=O)C1CCN(C2CC(=O)N(Cc3cccs3)C2=O)CC1 (stereo not drawn),-0.395
18,O=C(CSc1ccc(Cl)cc1)Nc1ccccc1N1CCN(C(=O)c2ccc(Cl)cc2)CC1,16.7
19,Cc1cccc(C)c1NC(=O)CN(C)C(=O)C1CC1C (stereo not drawn),7.9
20,C[C@@H]1C[C@H]2[C@@H]3CCC4=CC(=O)C=C[C@]4(C)[C@@]3(F)[C@@H](O)C[C@]2(C)[C@@]1(O)C(=O)CO,6.89
21,CCOc1cc(C(=O)CSc2nnc(CNc3ccc(Cl)cc3)o2)ccc1NC(=O)CC,12
22,CCOc1ccc(S(=O)(=O)NCc2ccc3c(c2)OCO3)cc1,14.5
23,CCN(CC)CCNCC1C(=O)O[C@@H]2C[C@@]3(C)CCC[C@H](C)C3=C[C@H]12 (stereo partly drawn),-1.21

row,Compound,"hERG current change (%, negative = inhibition) at 1uM [%]"
1,CCOC(=O)c1c(NC(=O)CSc2ncn[nH]2)sc(C(C)=O)c1C,0.398
2,COCCN(C(=O)CSc1nnc(C)n1-c1ccccc1)c1c(N)n(Cc2ccccc2)c(=O)[nH]c1=O,11.2
3,O=S1(=O)CCN(CCc2c[nH]c3ccccc23)CC1,11
4,O=C(CSc1nnc(-c2ccncc2)n1Cc1ccco1)Nc1ccccc1Cl,-7.09
5,CCOC(=O)CC1COc2ccccc2N1C(=O)c1cccc([N+](=O)[O-])c1 (stereo not drawn),6.41
6,CCC(=O)N1N=C(c2ccc(NS(=O)(=O)CC)cc2)CC1c1ccc(C)cc1 (stereo not drawn),6.3
7,O=C(CCN1C(=O)c2ccccc2C1=O)Nc1ccc(S(=O)(=O)N2CCOCC2)cc1,2.33
8,Cc1ccc2nc(SCC(=O)c3ccc4c(c3)OCO4)[nH]c2c1,5.16
9,COc1cccc(-c2noc(-c3ccc4c(c3)OCO4)n2)c1,8.74
10,Cn1c(N2CCN(S(=O)(=O)c3ccc(Cl)cc3)CC2)nc2ccccc21,-23.2
11,COC(=O)c1c(C)[nH]c(C(=O)/C=C/c2cccc(Cl)c2)c1C,10.1
12,Cc1cccc(OCC(=O)NCC(=O)n2nc(C)cc2C)c1,12.5
13,CCOC(=O)C(Cc1ccc(NC(C)=O)cc1)N1C(=O)c2ccccc2C1=O (stereo not drawn),4.95
14,O=C(NCc1n[nH]c(=S)n1-c1ccc([N+](=O)[O-])cc1)c1ccc(S(=O)(=O)N2CCOCC2)cc1,9.68
15,CC(CCc1ccccc1)NC(=O)c1cccs1 (stereo not drawn),-2.05
16,Cc1ccccc1NC(=O)c1c(-c2ccccc2)noc1C,11.4
17,CCN(C1CCS(=O)(=O)C1)S(=O)(=O)c1cccs1 (stereo not drawn),18.5
18,CCc1ccc(NC(=O)N(CCCOC(C)C)C2CCN(C(C)=O)CC2)cc1,-6.37
19,COc1ccccc1C/C(N)=N/OC(=O)c1ccc2c(c1)OCO2,20.9
20,Cc1nn2c(nc1=O)SCC(c1ccccc1)=N2,3.52
21,O=C1CSC(=S)N1c1ccc(F)cc1,16.4
